Measurements from the supplement of paper PMC7826260.
Some of the results follow. Viral Rep nickase domains cut single-stranded DNA in vitro (3 µM enzyme, 1 h, 37 °C); shown is the middle of each 90-letter strand. Uncut reads are compared with the no-enzyme pool on a log2 scale; more negative means more cut, near 0 not cut, and no call is made. Reads are scaled to the total; where an enzyme cuts many sequences, the uncut ones exceed 0.

Experiments:
Test in all cases: uncleaved DNA left, log2 of reads against the no-enzyme library (log2 ratio); higher = less cleavage (more negative = more Rep cleavage of the k-mer); sequences stand for … in CTCGTCCG…ACCGGAGA
[1] = test system: T1, Rep nickase domain of Muscovy duck circovirus
T1 sequence (protein, residues 1-111, tag omitted): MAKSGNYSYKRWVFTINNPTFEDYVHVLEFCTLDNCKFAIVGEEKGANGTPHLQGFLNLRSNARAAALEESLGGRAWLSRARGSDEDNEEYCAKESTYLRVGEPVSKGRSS
Procedure: (§1)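 A pool of 90-nt single-stranded DNAs with seven random bases just before the constant AC of the nick site (name = the seven bases) was cut by 3 µM recombinant His6-SUMO-tagged Rep nickase domain (300 nM DNA, 50 mM HEPES pH 8.0, 50 mM NaCl, 1 mM MnCl2, 1 h, 37 °C, three replicates). Uncut DNA was amplified and sequenced.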

[2] = test system: T2, Rep nickase domain of banana bunchy top virus
T2 sequence (protein, residues 1-94, tag omitted): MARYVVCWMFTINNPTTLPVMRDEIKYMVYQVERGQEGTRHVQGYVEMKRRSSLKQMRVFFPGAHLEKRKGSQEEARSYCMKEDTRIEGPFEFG
Procedure: as §1

[3] = test system: T3, Rep nickase domain of cabbage leaf curl virus
T3 sequence (protein, residues 1-116, tag omitted): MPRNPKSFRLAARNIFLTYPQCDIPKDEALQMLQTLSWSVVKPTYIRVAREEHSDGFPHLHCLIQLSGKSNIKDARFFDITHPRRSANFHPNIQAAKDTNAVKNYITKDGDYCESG
Procedure: as §1

[4] = test system: T4, Rep nickase domain of chickpea chlorotic dwarf virus
T4 sequence (protein, residues 1-124, tag omitted): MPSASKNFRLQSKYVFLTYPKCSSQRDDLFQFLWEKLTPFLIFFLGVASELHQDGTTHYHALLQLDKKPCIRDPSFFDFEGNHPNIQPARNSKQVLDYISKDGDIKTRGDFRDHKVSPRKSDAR
Procedure: as §1

[5] = test system: T5, Rep nickase domain of faba bean necrotic yellows virus
T5 sequence (protein, residues 1-98, tag omitted): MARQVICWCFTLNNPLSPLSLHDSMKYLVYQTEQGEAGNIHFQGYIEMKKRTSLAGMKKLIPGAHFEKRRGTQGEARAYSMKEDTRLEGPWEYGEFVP
Procedure: as §1

[6] = test system: T6, Rep nickase domain of maize striate mosaic virus
T6 sequence (protein, residues 1-117, tag omitted): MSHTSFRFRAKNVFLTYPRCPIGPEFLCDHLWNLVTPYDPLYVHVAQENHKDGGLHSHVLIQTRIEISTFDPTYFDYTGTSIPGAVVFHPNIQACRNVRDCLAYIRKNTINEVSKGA
Procedure: as §1

[7] = test system: T7, Rep nickase domain of porcine circovirus 2
T7 sequence (protein, residues 2-116, tag omitted): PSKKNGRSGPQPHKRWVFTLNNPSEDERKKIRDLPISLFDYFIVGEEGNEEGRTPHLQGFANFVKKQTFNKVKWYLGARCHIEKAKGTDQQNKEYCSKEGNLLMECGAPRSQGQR
Procedure: as §1

[8] = test system: T8, Rep nickase domain of tomato golden mosaic virus
T8 sequence (protein, residues 1-124, tag omitted): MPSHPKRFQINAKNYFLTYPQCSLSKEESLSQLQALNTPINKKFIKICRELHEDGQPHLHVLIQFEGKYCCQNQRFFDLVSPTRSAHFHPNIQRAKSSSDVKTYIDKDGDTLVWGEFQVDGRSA
Procedure: as §1

[9] = test system: T9, Rep nickase domain of tomato yellow leaf curl virus
T9 sequence (protein, residues 1-136, tag omitted): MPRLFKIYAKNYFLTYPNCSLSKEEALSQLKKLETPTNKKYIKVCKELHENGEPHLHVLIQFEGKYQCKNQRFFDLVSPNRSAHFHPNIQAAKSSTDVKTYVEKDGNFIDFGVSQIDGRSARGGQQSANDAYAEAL
Procedure: as §1

[10] = test system: T10, Rep nickase domain of wheat dwarf virus
T10 sequence (protein, residues 1-137, tag omitted): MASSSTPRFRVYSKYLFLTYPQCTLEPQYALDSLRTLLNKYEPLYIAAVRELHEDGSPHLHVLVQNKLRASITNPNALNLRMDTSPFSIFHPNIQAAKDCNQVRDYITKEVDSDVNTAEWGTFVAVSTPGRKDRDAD
Procedure: as §1

Row | Sequence | uncleaved DNA left (log2) [1] | uncleaved DNA left (log2) [2] | uncleaved DNA left (log2) [3] | uncleaved DNA left (log2) [4] | uncleaved DNA left (log2) [5] | uncleaved DNA left (log2) [6] | uncleaved DNA left (log2) [7] | uncleaved DNA left (log2) [8] | uncleaved DNA left (log2) [9] | uncleaved DNA left (log2) [10]
1 | TACTATT | -3.71 | -4.45 | -3.61 | -3.67 | -3.54 | -2.99 | -4.54 | -3.65 | -0.322 | -3.51
2 | TCACATT | 0.0673 | 0.0861 | -0.242 | -2.34 | 0.0561 | -0.371 | -0.0329 | 0.0284 | 0.0238 | 0.0469
3 | ATAGGAT | 0.196 | 0.0329 | 0.293 | 1.68 | -0.0254 | 1.88 | 0.192 | 0.0962 | -0.107 | 0.077
4 | CCGGATT | 0.0794 | 0.0756 | 0.409 | -0.0662 | 0.0646 | 1.16 | 0.0182 | 0.0793 | 0.096 | -0.0102
5 | GACATTA | -0.0259 | 0.147 | 0.825 | 1.49 | 0.0111 | 2.02 | 0.174 | 0.0569 | 0.0906 | 0.201
6 | CGCTGAC | 0.144 | -0.0712 | 0.015 | 0.575 | 0.0596 | 0.266 | 0.103 | -0.0777 | 0.0424 | 0.0429
7 | AGATGTG | -0.0304 | -0.123 | -0.756 | -0.285 | 0.0659 | -0.988 | 0.0719 | -0.02 | -0.053 | -0.187
8 | TAACCCG | -0.213 | -0.0112 | -0.988 | -1.68 | 0.0721 | -1.11 | -1.33 | -0.0506 | -0.0643 | -0.102
9 | GAAGTAC | 0.0218 | -0.0271 | 0.115 | 0.362 | -0.06 | 0.37 | 0.0469 | 0.0372 | 0.0763 | 0.0562
10 | TGGAAGG | 0.168 | 0.132 | 0.511 | 1.15 | 0.116 | 1.06 | 0.182 | 0.116 | 0.0695 | 0.182
11 | TGCTAGT | -1.06 | -0.104 | -0.23 | -0.377 | 0.0449 | -0.808 | -2.84 | 0.0459 | 0.145 | -0.0197
12 | AGTACTA | 0.0678 | 0.00778 | 0.0105 | -0.257 | -0.0209 | 0.728 | -0.514 | 0.0771 | 0.0559 | 0.146
13 | TCTATTC | 0.153 | 0.018 | 0.105 | -0.0505 | -0.00635 | -0.777 | 0.0471 | -0.0624 | 0.0621 | -0.0597
14 | GGAGTTC | 0.083 | 0.0468 | 0.59 | 1.3 | 0.0246 | 1.99 | 0.0622 | 0.148 | 0.224 | 0.197
15 | TCGCTGC | 0.0196 | -0.137 | 0.0408 | 0.0436 | 0.153 | -0.188 | -0.0309 | -0.0765 | -0.0696 | -0.151
16 | GATAAAG | 0.0176 | 0.072 | -0.578 | -0.468 | -0.0027 | -0.826 | 0.206 | 0.128 | 0.0899 | -0.00814
17 | CTCTGGA | -0.0423 | -0.184 | -0.0463 | -0.025 | -0.198 | -0.624 | -0.0375 | 0.0206 | -0.198 | -0.0665
18 | TATGGCC | 0.142 | 0.0637 | 0.0474 | 0.136 | 0.0688 | -0.504 | 0.156 | 0.0321 | -0.0312 | 0.143
19 | TCTAGGG | 0.0506 | -0.0281 | 0.154 | 0.408 | 0.0504 | -0.0795 | 0.0835 | 0.0893 | -0.0727 | -0.00328
20 | TTTTTCG | 0.119 | -0.012 | -0.659 | 0.0429 | 0.0977 | -0.919 | 0.208 | 0.0122 | 0.0461 | 0.0604
21 | CGGGGCC | -0.208 | -0.15 | 0.535 | 1.18 | -0.184 | 1.71 | 0.00139 | -0.27 | -0.23 | -0.0782
22 | GTTGAAG | 0.00738 | 0.127 | -0.029 | 0.196 | 0.0118 | -0.112 | 0.141 | 0.146 | 0.0546 | -0.0531
23 | TAAGTAG | -0.00484 | -0.0265 | -0.648 | -0.971 | 0.0718 | -1.2 | 0.167 | -0.00198 | 0.0733 | -0.117
24 | GCTCAAG | 0.0246 | -0.0738 | -0.546 | -0.286 | -0.0594 | -0.985 | 0.224 | 0.0511 | 0.0713 | -0.0203
25 | CCGACCC | 0.00037 | -0.0333 | 0.0652 | 0.243 | -0.0292 | 0.295 | -0.135 | -0.123 | -0.0199 | -0.0106
26 | TGTTTCG | -0.0133 | -0.124 | -0.844 | -0.19 | -0.034 | -1.1 | -0.0231 | -0.152 | -0.0281 | -0.19
27 | TGGCACC | 0.0573 | -0.0214 | 0.426 | 0.913 | -0.0749 | 1.17 | 0.00981 | 0.0147 | 0.0758 | 0.167
28 | TTGGCTT | 0.0524 | -0.0369 | -0.0575 | -1.26 | -0.00178 | -0.00102 | -0.195 | -0.0787 | -0.0999 | -0.0958
29 | AAGACGC | -0.0669 | -0.0669 | -0.0184 | -0.089 | -0.00247 | -0.507 | -0.0278 | -0.000624 | -0.0933 | -0.0541
